Test results published in the supplement of paper PMC8728848.
The list shows a part of the results.

What was measured:
Assay in all cases: glycan array binding signal (z-score within array); higher = stronger binding
Conditions in all cases: glycan notation: IUPAC condensed, linker removed; mutation: E41G
[1] = biological target: Neu5Ac(a2-3)Gal6S(b1-4)[Fuc(a1-3)]GlcNAc
Procedure, shortened: (§1)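 The binding signal is a Z-score computed within each array and averaged over linkers. Arrays of the same protein sequence at different concentrations or buffers were also averaged together. Data originate from 3228 arrays in the Consortium for Functional Glycomics database, kept only where the protein sequence was available.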

Neu5Ac(a2-3)GalNAc = biological target: Neu5Ac(a2-3)GalNAc
Procedure, shortened: as §1

[2] = biological target: Neu5Ac(a2-3)GalNAc(b1-4)GlcNAc
Procedure, shortened: as §1

[3] = biological target: Neu5Ac(a2-3)[GalNAc(b1-4)]Gal(b1-4)Glc
Procedure, shortened: as §1

[4] = biological target: Neu5Ac(a2-3)[GalNAc(b1-4)]Gal(b1-4)GlcNAc
Procedure, shortened: as §1

[5] = biological target: Neu5Ac(a2-3)[GalNAc(b1-4)]Gal(b1-4)GlcNAc(b1-3)GalNAc
Procedure, shortened: as §1

[6] = biological target: Neu5Ac(a2-3)[Neu5Ac(a2-6)]GalNAc
Procedure, shortened: as §1

Neu5Ac(a2-6)Gal = biological target: Neu5Ac(a2-6)Gal
Procedure, shortened: as §1

[7] = biological target: Neu5Ac(a2-6)Gal(b1-3)GlcNAc(b1-3)[Gal(b1-4)GlcNAc(b1-6)]Gal(b1-4)Glc
Procedure, shortened: as §1

Neu5Ac(a2-6)Gal(b1-4)Glc = biological target: Neu5Ac(a2-6)Gal(b1-4)Glc
Procedure, shortened: as §1

[8] = biological target: Neu5Ac(a2-6)Gal(b1-4)GlcNAc
Procedure, shortened: as §1

[9] = biological target: Neu5Ac(a2-6)Gal(b1-4)GlcNAc(b1-2)Man
Procedure, shortened: as §1

[10] = biological target: Neu5Ac(a2-6)Gal(b1-4)GlcNAc(b1-2)Man(a1-3)Man(b1-4)GlcNAc(b1-4)GlcNAc
Procedure, shortened: as §1

[11] = biological target: Neu5Ac(a2-6)Gal(b1-4)GlcNAc(b1-2)Man(a1-3)[Gal(b1-4)GlcNAc(b1-2)Man(a1-6)]Man(b1-4)GlcNAc(b1-4)GlcNAc
Procedure, shortened: as §1

[12] = biological target: Neu5Ac(a2-6)Gal(b1-4)GlcNAc(b1-2)Man(a1-3)[GlcNAc(b1-4)][Neu5Ac(a2-6)Gal(b1-4)GlcNAc(b1-2)Man(a1-6)]Man(b1-4)GlcNAc(b1-4)GlcNAc
Procedure, shortened: as §1

[13] = biological target: Neu5Ac(a2-6)Gal(b1-4)GlcNAc(b1-2)Man(a1-3)[Man(a1-6)]Man(b1-4)GlcNAc(b1-4)GlcNAc
Procedure, shortened: as §1

[14] = biological target: Neu5Ac(a2-6)Gal(b1-4)GlcNAc(b1-2)Man(a1-3)[Neu5Ac(a2-3)Gal(b1-4)GlcNAc(b1-2)Man(a1-6)]Man(b1-4)GlcNAc(b1-4)GlcNAc
Procedure, shortened: as §1

[15] = biological target: Neu5Ac(a2-6)Gal(b1-4)GlcNAc(b1-2)Man(a1-3)[Neu5Ac(a2-6)Gal(b1-4)GlcNAc(b1-2)Man(a1-6)]Man(b1-4)GlcNAc(b1-4)GlcNAc
Procedure, shortened: as §1

[16] = biological target: Neu5Ac(a2-6)Gal(b1-4)GlcNAc(b1-2)Man(a1-3)[Neu5Ac(a2-6)Gal(b1-4)GlcNAc(b1-2)Man(a1-6)]Man(b1-4)GlcNAc(b1-4)[Fuc(a1-6)]GlcNAc
Procedure, shortened: as §1

[17] = biological target: Neu5Ac(a2-6)Gal(b1-4)GlcNAc(b1-2)Man(a1-6)Man(b1-4)GlcNAc(b1-4)GlcNAc
Procedure, shortened: as §1

[18] = biological target: Neu5Ac(a2-6)Gal(b1-4)GlcNAc(b1-2)Man(a1-6)[Gal(b1-4)GlcNAc(b1-2)Man(a1-3)]Man(b1-4)GlcNAc(b1-4)GlcNAc
Procedure, shortened: as §1

[19] = biological target: Neu5Ac(a2-6)Gal(b1-4)GlcNAc(b1-2)Man(a1-6)[GlcNAc(b1-2)Man(a1-3)]Man(b1-4)GlcNAc(b1-4)GlcNAc
Procedure, shortened: as §1

[20] = biological target: Neu5Ac(a2-6)Gal(b1-4)GlcNAc(b1-2)Man(a1-6)[Man(a1-3)]Man(b1-4)GlcNAc(b1-4)GlcNAc
Procedure, shortened: as §1

[21] = biological target: Neu5Ac(a2-6)Gal(b1-4)GlcNAc(b1-2)[Neu5Ac(a2-6)Gal(b1-4)GlcNAc(b1-4)]Man(a1-3)[GlcNAc(b1-4)][Neu5Ac(a2-6)Gal(b1-4)GlcNAc(b1-2)[Neu5Ac(a2-6)Gal(b1-4)GlcNAc(b1-6)]Man(a1-6)]Man(b1-4)GlcNAc(b1-4)GlcNAc
Procedure, shortened: as §1

[22] = biological target: Neu5Ac(a2-6)Gal(b1-4)GlcNAc(b1-2)[Neu5Ac(a2-6)Gal(b1-4)GlcNAc(b1-4)]Man(a1-3)[GlcNAc(b1-4)][Neu5Ac(a2-6)Gal(b1-4)GlcNAc(b1-4)Man(a1-6)]Man(b1-4)GlcNAc(b1-4)GlcNAc
Procedure, shortened: as §1

[23] = biological target: Neu5Ac(a2-6)Gal(b1-4)GlcNAc(b1-2)[Neu5Ac(a2-6)Gal(b1-4)GlcNAc(b1-6)]Man(a1-6)[Neu5Ac(a2-6)Gal(b1-4)GlcNAc(b1-2)Man(a1-3)][GlcNAc(b1-4)]Man(b1-4)GlcNAc(b1-4)GlcNAc
Procedure, shortened: as §1

[24] = biological target: Neu5Ac(a2-6)Gal(b1-4)GlcNAc(b1-3)Gal(b1-3)GlcNAc
Procedure, shortened: as §1

[25] = biological target: Neu5Ac(a2-6)Gal(b1-4)GlcNAc(b1-3)Gal(b1-4)GlcNAc
Procedure, shortened: as §1

[26] = biological target: Neu5Ac(a2-6)Gal(b1-4)GlcNAc(b1-3)Gal(b1-4)GlcNAc(b1-2)Man(a1-3)[Neu5Ac(a2-6)Gal(b1-4)GlcNAc(b1-3)Gal(b1-4)GlcNAc(b1-2)Man(a1-6)]GalNAc
Procedure, shortened: as §1

[27] = biological target: Neu5Ac(a2-6)Gal(b1-4)GlcNAc(b1-3)Gal(b1-4)GlcNAc(b1-3)Gal(b1-4)GlcNAc
Procedure, shortened: as §1

[28] = biological target: Neu5Ac(a2-6)Gal(b1-4)GlcNAc(b1-3)Gal(b1-4)GlcNAc(b1-3)Gal(b1-4)GlcNAc(b1-2)Man(a1-3)[Neu5Ac(a2-6)Gal(b1-4)GlcNAc(b1-3)Gal(b1-4)GlcNAc(b1-3)Gal(b1-4)GlcNAc(b1-2)Man(a1-6)]GalNAc
Procedure, shortened: as §1

[29] = biological target: Neu5Ac(a2-6)Gal(b1-4)GlcNAc(b1-3)Gal(b1-4)GlcNAc(b1-3)GalNAc
Procedure, shortened: as §1

[30] = biological target: Neu5Ac(a2-6)Gal(b1-4)GlcNAc(b1-3)Gal(b1-4)GlcNAc(b1-3)[Neu5Ac(a2-6)Gal(b1-4)GlcNAc(b1-3)Gal(b1-4)GlcNAc(b1-6)]GalNAc
Procedure, shortened: as §1

[31] = biological target: Neu5Ac(a2-6)Gal(b1-4)GlcNAc(b1-3)Gal(b1-4)GlcNAc(b1-6)[Gal(b1-3)]GalNAc
Procedure, shortened: as §1

[32] = biological target: Neu5Ac(a2-6)Gal(b1-4)GlcNAc(b1-3)Gal(b1-4)[Fuc(a1-3)]GlcNAc(b1-3)Gal(b1-4)[Fuc(a1-3)]GlcNAc
Procedure, shortened: as §1

[33] = biological target: Neu5Ac(a2-6)Gal(b1-4)GlcNAc(b1-3)GalNAc
Procedure, shortened: as §1

[34] = biological target: Neu5Ac(a2-6)Gal(b1-4)GlcNAc(b1-3)[Neu5Ac(a2-6)Gal(b1-4)GlcNAc(b1-6)]GalNAc
Procedure, shortened: as §1

[35] = biological target: Neu5Ac(a2-6)Gal(b1-4)GlcNAc(b1-6)GalNAc
Procedure, shortened: as §1

[36] = biological target: Neu5Ac(a2-6)Gal(b1-4)GlcNAc(b1-6)[Gal(b1-3)GlcNAc(b1-3)]Gal(b1-4)Glc
Procedure, shortened: as §1

[37] = biological target: Neu5Ac(a2-6)Gal(b1-4)GlcNAc(b1-6)[Gal(b1-3)]GalNAc
Procedure, shortened: as §1

[38] = biological target: Neu5Ac(a2-6)Gal(b1-4)GlcNAc6S
Procedure, shortened: as §1

Neu5Ac(a2-6)GalNAc = biological target: Neu5Ac(a2-6)GalNAc
Procedure, shortened: as §1

[39] = biological target: Neu5Ac(a2-6)GalNAc(b1-4)GlcNAc
Procedure, shortened: as §1

[40] = biological target: Neu5Ac(a2-6)GalNAc(b1-4)GlcNAc6S
Procedure, shortened: as §1

[41] = biological target: Neu5Ac(a2-6)GlcNAc(b1-4)GlcNAc
Procedure, shortened: as §1

B1: CVN-E41G (protein)
chain: MHHHHHHENLYFQSGNFSQACYNSAIQGSVLTSTCIRTNGGYNTSSIDLNSVIGNVDGSLKWQGSNFIETCRNTQLAGSSELAAECKTRAQQFVSTKINLDDHIAAIDGTLKYE
- glycan array binding signal (z-score) [1]: -0.196
- glycan array binding signal (z-score) (Neu5Ac(a2-3)GalNAc): -0.164
- glycan array binding signal (z-score) [2]: -0.147
- glycan array binding signal (z-score) [3]: -0.177
- glycan array binding signal (z-score) [4]: -0.187
- glycan array binding signal (z-score) [5]: -0.159
- glycan array binding signal (z-score) [6]: -0.12
- glycan array binding signal (z-score) (Neu5Ac(a2-6)Gal): -0.168
- glycan array binding signal (z-score) [7]: -0.152
- glycan array binding signal (z-score) (Neu5Ac(a2-6)Gal(b1-4)Glc): -0.153
- glycan array binding signal (z-score) [8]: -0.163
- glycan array binding signal (z-score) [9]: -0.159
- glycan array binding signal (z-score) [10]: -0.172
- glycan array binding signal (z-score) [11]: -0.149
- glycan array binding signal (z-score) [12]: -0.147
- glycan array binding signal (z-score) [13]: -0.159
- glycan array binding signal (z-score) [14]: -0.146
- glycan array binding signal (z-score) [15]: -0.15
- glycan array binding signal (z-score) [16]: -0.065
- glycan array binding signal (z-score) [17]: -0.156
- glycan array binding signal (z-score) [18]: -0.16
- glycan array binding signal (z-score) [19]: -0.07
- glycan array binding signal (z-score) [20]: -0.166
- glycan array binding signal (z-score) [21]: -0.163
- glycan array binding signal (z-score) [22]: -0.14
- glycan array binding signal (z-score) [23]: -0.139
- glycan array binding signal (z-score) [24]: -0.168
- glycan array binding signal (z-score) [25]: -0.191
- glycan array binding signal (z-score) [26]: -0.13
- glycan array binding signal (z-score) [27]: -0.177
- glycan array binding signal (z-score) [28]: -0.112
- glycan array binding signal (z-score) [29]: -0.148
- glycan array binding signal (z-score) [30]: -0.14
- glycan array binding signal (z-score) [31]: -0.149
- glycan array binding signal (z-score) [32]: -0.008
- glycan array binding signal (z-score) [33]: -0.016
- glycan array binding signal (z-score) [34]: -0.147
- glycan array binding signal (z-score) [35]: -0.126
- glycan array binding signal (z-score) [36]: -0.167
- glycan array binding signal (z-score) [37]: -0.158
- glycan array binding signal (z-score) [38]: -0.169
- glycan array binding signal (z-score) (Neu5Ac(a2-6)GalNAc): -0.155
- glycan array binding signal (z-score) [39]: -0.2
- glycan array binding signal (z-score) [40]: -0.127
- glycan array binding signal (z-score) [41]: -0.157
